Source: PMC9574860, “Chemical Toolkit for PARK7: Potent, Selective, and High-Throughput” (Journal of Medicinal Chemistry, 2022)
Out of some 7,900 compounds screened, about 400 (5.1%) showed an effect of 50% or more. The list shows a part of the results.

The compounds below were run against Parkinson's disease protein 7 (PARK7/DJ1) (human, UniProt Q99497) (assay: primary screen, percent inhibition; read as competition with a fluorescent probe by fluorescence polarization; higher = more effect of the substance). Conditions: 100 µM.
Chain of Parkinson's disease protein 7 (PARK7/DJ1) (Q99497 whole entry, looked up, the tested form may be a part): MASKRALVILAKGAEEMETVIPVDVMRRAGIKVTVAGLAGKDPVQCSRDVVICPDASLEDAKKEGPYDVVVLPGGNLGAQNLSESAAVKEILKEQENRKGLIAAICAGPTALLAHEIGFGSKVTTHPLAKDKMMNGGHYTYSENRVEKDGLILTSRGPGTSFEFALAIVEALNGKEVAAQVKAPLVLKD
Procedure, shortened: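 Fluorescence-polarization probe displacement (JYQ-107, 20 nM final, 2 h) after 2 h preincubation of PARK7 (0.2 μM final) with each fragment at 100 μM final. Read-out ex/em 480/520 nm; remaining activity derived from FP signal loss relative to reference controls.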

SMILES | Inhibition % [%]
C=CC(=O)Nc1nnc(C)c2ccccc12 | 14.7
CC1(C)OB(c2ccc(F)cc2)OC1(C)C | 3.99
C=CC(=O)NCCN(C)C1CCCC1 | 8.04
C=CC(=O)Nc1cccc(F)c1C | 7.6
NS(=O)(=O)c1cccc(NC(=O)Oc2ccccc2)c1 | 4.87
C=CC(=O)N1CCCN(c2nnc(C(F)(F)F)s2)CC1 | 3.88
Cc1ccc(NC(=O)CCl)cc1[N+](=O)[O-] | 37.9
Cn1cc(C(=O)CCl)nn1 | 3.33
O=C(CCl)Nc1nnc(CC(F)(F)F)o1 | 4.09
Cc1cc(C)c2c(O)nc(S)nc2n1 | 8.38
COc1cc(F)ccc1N1CCN(C2CCOC2=O)CC1 (centres unmarked) | 7.6
C=CC(=O)N1CCC(C)S(=O)(=O)CC1 (centres unmarked) | 7.1
O=C(C1CCOCC1)N1CCCC(S(=O)(=O)F)C1 (centres unmarked) | 8.98
C=CC(=O)NC1COCC1CC (centres unmarked) | 6.4
O=S1(=O)C=CC(O)C1 (centres unmarked) | 4.75
COc1ccc(C=CC(=O)N2CCCC(O)C2)cc1F (centres unmarked) | 9.41
Cc1nn(-c2nccs2)cc1B1OC(C)(C)C(C)(C)O1 | 4.59
N#Cc1cccc(F)n1 | 4.58
CC(C)C1NC(=O)C12CCCO2 (centres unmarked) | 4.3
O=C1NC(C2CCOCC2)C12CCC2 (centres unmarked) | 8.16
N#Cc1[nH]nnc1-c1ccccc1 | 7.59
N#Cc1ccncc1C(=O)O | 12.3
N#Cc1ccc(N2CCCC2CF)cn1 (centres unmarked) | 6.88
CCCNCc1ccc(B2OC(C)(C)C(C)(C)O2)cc1 | 6.99
CC1N=C(S)N(CCc2ccccc2)C1=O (centres unmarked) | 3.61

SMILES | Inhibition % [%]
O=C(CCl)Nc1ccccc1C(=O)c1ccccc1 | 8.12
O=C(CCl)NC(=O)NC1CC1 | 10.7
CC(C)(C)Nc1cc(F)c(S(=O)(=O)F)cc1N | 7.67
O=C(Nc1ccc(-c2noc(=O)[nH]2)cc1)C1CC1 | 5.01
O=C(O)C1CC(c2ccccc2)OC1=O (centres unmarked) | 9.1
N#Cc1ccc(S(=O)(=O)F)cc1 | 60.6
OB(O)c1cccc2c1OC(F)(F)O2 | 4.86
Cc1cc(C(=O)CCl)c(C)n1CC1CCCO1 (centres unmarked) | 3.43
CC1(C)COCCN1Cn1nc(-c2ccccc2)oc1=O | 8.59
N#Cc1nc(Cl)cc(N)c1N | 13.7
CC1CC(Sc2nccn2-c2ccccc2)C(=O)O1 (centres unmarked) | 6.06
O=C(CCl)NNC(=O)Cc1cccc2ccccc12 | 3.35
CC1Oc2ccc(B3OC(C)(C)C(C)(C)O3)cc2NC1=O (centres unmarked) | 12.4
O=c1[nH]c(-c2ccccc2)no1 | 34.7
OB(O)c1ccc(Cn2ccnc2)cc1 | 6.33
O=S1(=O)CCC(Cl)CC1 | 2.86
O=c1oc(-c2ccc(F)cc2)nn1CN1CCSCC1 | 1.98
C=CC(=O)N[C@@H]1CCC(=O)N[C@H]1c1ccnn1C | 8.62
C=CS(=O)(=O)C1CCCC1 | 10.5
CN(CC1CCCCC1)C1CCOC1=O (centres unmarked) | 4.81
C=CC(=O)N1CCN(C(C)c2ccc(F)cc2F)CC1 (centres unmarked) | 15.3
Cl.NCCCNS(=O)(=O)C=Cc1ccccc1Cl | 14.8
C=CC(=O)N1CCCC(C(N)=O)C1 (centres unmarked) | -0.0694
C=CC(=O)N1CCCC1c1ccc(F)cc1 (centres unmarked) | 7.08
C=CC(=O)N1CCOC(C2CC2)C1 (centres unmarked) | 9.62

SMILES | Inhibition % [%]
C=CC(=O)N1CCN(c2cc(C)nc3ncnn23)CC1 | 8.09
O=C(CCl)Nc1ccccc1N1CCCC1=O | -0.367
COc1ccc(NS(=O)(=O)C=Cc2ccccc2)cc1 | 1.18
CC1CCc2ccccc2N1C(=O)CCl (centres unmarked) | 100
COc1ccc(N(CC(F)(F)F)C(=O)CCl)cc1 | 36.5
Cc1cccc(C(=O)O)c1NC(=O)CCl | 5.7
C=CC(=O)NC1CCc2ccccc2C1 (centres unmarked) | 10.4
Cc1cccc(S(=O)(=O)CCCn2ccnc2C#N)c1 | -0.0399
C=CC(=O)N1CCC(C(=O)O)(c2ccccc2)C1 (centres unmarked) | 7.9
O=C(CCl)NCC#Cc1cccc(C(F)(F)F)c1 | 6.88
CN(CCOc1ccc(Cl)cc1)C(=O)CCl | 63.6
Cc1[nH]c(=O)nc(S)c1C(=O)O | 18.1
C=CC(=O)NC1CCCc2c1cnn2CC (centres unmarked) | 8.99
CC1(C)OB(c2cccc(C(F)(F)C(F)(F)F)c2)OC1(C)C | 5.14
CN(C)C(=O)n1nnc2ccccc21 | 6.1
C=CC(=O)N(Cc1ccc(OC)cc1)C1CCS(=O)(=O)C1 (centres unmarked) | 6.03
O=C1OCCC1Sc1nc2ncccn2n1 (centres unmarked) | 4.5
CC(C(=O)N1CCc2ccccc21)N1C(=O)CCC1=O (centres unmarked) | 15
O=C1NC(c2ccccc2)C12CCCCC2 (centres unmarked) | 25.3
C=CC(=O)N1CCC(NC(C)=O)(c2nc(C)cs2)C1 (centres unmarked) | 5.8
C=CC(=O)N1CCN(CC2CCCO2)CC1 (centres unmarked) | 22.1
Cc1ccc(C=CC(=O)N2CCCC(NS(C)(=O)=O)C2)o1 (centres unmarked) | 6.42
CC(C1CC1)N(C(=O)c1ccc(S(=O)(=O)F)cc1)C1CC1 (centres unmarked) | 3.18
C=CC(=O)N[C@H]1CCc2ncsc2C1 | 17.4
O=C(O)C1CN(C(=O)C=Cc2ccc(Cl)s2)CCO1 (centres unmarked) | 7.53

SMILES | Inhibition % [%]
O=C1OCCC1N1CC=C(c2ccc(O)cc2)CC1 (centres unmarked) | -1.55
C=CC(=O)N1CC(c2ccsc2)CC1C (centres unmarked) | 13.7
O=C(CCl)Nc1ccc(F)c([N+](=O)[O-])c1 | 14.3
COc1ccc([C@@H]2O[C@H]2C)cc1 (racemic) | 6.69
O=C(CCl)NC1CC1 | 9.12
COC(OC)c1cc[nH]n1 | 0.954
C=CC(=O)N1CCN(C(=O)c2cnoc2C)CC1 | 2.64
CCOc1ccc(C)cc1S(=O)(=O)n1cc(C)nc1CC | 5.56
C=CC(=O)N1CCCC1c1ccccc1C (centres unmarked) | 6.94
CCC(C)c1ccc(C(=O)Cn2cnc(C#N)n2)cc1 (centres unmarked) | 1.54
C=CC(=O)N[C@@H]1CCC(=O)N[C@H]1c1cnn(CC)c1 | 12.3
O=C(CCl)Nc1ccc([N+](=O)[O-])cc1[N+](=O)[O-] | 21.1
CC(C)NC(=O)C(C#N)=Cc1cccnc1 | 7.19
O=c1oc2ccccc2n1CCS(=O)(=O)F | 13.1
C=CC(=O)N1CCN(c2cccc(C)n2)CC1C (centres unmarked) | 12
CSc1ccccc1NC(=O)CN(C)C(=O)CCl | 34.6
O=C(CCl)NNC(=O)C1CC1 | 1.1
O=C1CCC(=O)N1CCC(=O)N1CCCC2CCCCC21 (centres unmarked) | 7.62
COC(=O)C1CCN(c2ccnc(C#N)c2)CC1 | 6.7
O=C(O)CC1OB(O)c2ccccc21 (centres unmarked) | 0.686
Cc1ccc(B2OC(C)(C)C(C)(C)O2)cc1 | 2.94
CC(C)CC(=O)NNS(=O)(=O)c1ccc(S(=O)(=O)F)cc1 | 30.6
Nn1c(SC2CCOC2=O)nnc1-c1cccs1 (centres unmarked) | 16.5
C=CCNC(=O)C(C#N)=Cc1cc(F)ccc1F | 6.92
CC(=O)NCc1ccc(S(=O)(=O)NC(=O)CCl)cc1 | 3.06

SMILES | Inhibition % [%]
CC(C)CC1C(=O)NCCN1C(=O)c1cnc(C#N)s1 (centres unmarked) | -2.05
O=C1CC(CC(=O)N2CC(C3CCCCC3)C2)CO1 (centres unmarked) | 10.3
C=CC(=O)NC1CCOC(C)C1 (centres unmarked) | 4.59
COc1cccc(C2CCCN2C(=O)n2ccnc2)c1 (centres unmarked) | 0.87
Cc1cccc(C#N)c1SC(=O)N(C)C | 8.13
Cc1ccc(N(C(=O)CCl)C2C=CS(=O)(=O)C2)cc1 (centres unmarked) | 8.7
CN(Cc1ccc(-c2ccc(Cl)cc2)o1)C(=O)CCl | 79.2
C=CC(=O)NCC(=O)N1CCCCC1 | 5.67
N#Cc1cncc(NCC2CC(c3ccccc3)C2)n1 (centres unmarked) | 3.91
Cc1ncncc1B1OC(C)(C)C(C)(C)O1 | 9.27
CNC1CCN(C(=O)C=Cc2c(C)nn(C)c2Cl)CC1 | 4.77
CN(Cc1ccsc1)C(=O)Cn1cnc(C#N)n1 | 5.08
O=S(=O)(F)CCn1cnc2ccccc21 | 11.8
CC(=O)N1CCc2cc(NC(=O)CCl)ccc21 | 3.54
Cc1nc2sccn2c(=O)c1CCCl | 3.24
O=C(CCl)NNC(=O)c1cccc(Cl)c1 | 13.8
C=CC(=O)N1CCC(F)(c2ccccc2)CC1 | 5.18
COc1c(S(=O)(=O)n2ccnc2)ccc(Cl)c1Cl | 3.28
CN(C)C=CC(=O)c1cc2ccccc2o1 | 0.589
Cc1cccc(CC(=O)Nc2nc3n(c2C#N)CCS3)c1 | 2.19
COc1cc(C)c(C(C)NC(=O)CCl)cc1OC (centres unmarked) | 3.84
C=CC(=O)NC1CCN(C)C(=O)C1 (centres unmarked) | 3.98
O=C(CCl)Nc1nc(-c2ccc(F)c(F)c2)cs1 | 2.41
N#Cc1ccc(NC2CCCC2CO)cn1 (centres unmarked) | 7.16
CCNC(=O)CN(C#N)c1ccc(F)cc1 | 4.15
